Patent publication US20150239991A1 (GLENMARK PHARMACEUTICALS S A, published 2015)

Biological target: T1, human FcRn (human, UniProt P55899 part only; P61769 part only)
T1 construct: range 24-297;range 21-119; Alpha chain non-covalently associated with beta2-microglobulin; used as analyte at pH 6.0; also called human neonatal Fc receptor; soluble form of the extracellular region of the human FcRn
Assay: SPR on human FcRn at pH 6.0, steady state KD expressed as ratio to the unmodified IGHG1 control
human FcRn, sequence (P55899 24-297 limits assumed, form in doubt, chain 1 of 2): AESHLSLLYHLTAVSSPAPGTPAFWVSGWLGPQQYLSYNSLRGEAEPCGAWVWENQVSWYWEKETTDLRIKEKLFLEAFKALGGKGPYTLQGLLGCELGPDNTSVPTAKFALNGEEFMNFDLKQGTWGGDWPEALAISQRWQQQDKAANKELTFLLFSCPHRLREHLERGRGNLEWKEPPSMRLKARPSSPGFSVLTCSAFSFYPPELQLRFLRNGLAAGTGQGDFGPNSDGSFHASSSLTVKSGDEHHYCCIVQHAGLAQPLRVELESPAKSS
human FcRn, sequence (P61769 21-119 limits assumed, form in doubt, chain 2 of 2, further chain): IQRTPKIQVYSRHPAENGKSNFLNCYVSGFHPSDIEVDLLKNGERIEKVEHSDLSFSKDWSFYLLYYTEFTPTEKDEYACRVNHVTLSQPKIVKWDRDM

B1: anti-hCD19 homo-dimeric immunoglobulin with the M428G substitution (antibody, human IgG1, kappa)
heavy: QVQLVQSGGGVVQPGRSLRLSCAASGVSLPDYGVSWVRQAPGKGLEWVAVIWGSETTYYNSALKSRFTISRDNSKNTLYLQMNSLRAEDTAVYYCAKHYYYGGSYAMDYWGQGTLVTVSS[human IgG1 constant region with M428G (EU numbers) not given here]
light: DIQMTQSPSSLSASVGDRVTITCRASQDISKYLNWYQQKPGKAIKLLIYHTSRLHSGVPSRFSGSGSGTDFTLTISSLQPEDFATYYCQQGATLPYTFGPGTKVDIKRTVAAPSVFIFPPSDEQLKSGTASVVCLLNNFYPREAKVQWKVDNALQSGNSQESVTEQDSKDSTYSLSSTLTLSKADYEKHKVYACEVTHQGLSSPVTKSFNRGEC
notes: copies: 2 + 2
  KD ratio (IGHG1/mutant): 0.45
